Measured values from PubChem BioAssay AID504332 (National Center for Advancing Translational Sciences (NCATS), 2011).
Screen size: about 350,000 compounds; about 31,000 (8.9%) were called active. This list was built around the results that the source calls inconclusive (neither active nor inactive); the mix of calls is not that of the screen. Calls come from the whole dose curve; as a rule, active = well fitted inhibition curve with a large enough effect; inconclusive = small, poorly fitted or top-dose-only effect; inactive = no such curve, though single readings can be large or run the other way. Potencies beside an inconclusive call are fits to weak or partial responses and may not hold up.

These molecules were tested against Histone-lysine N-methyltransferase EHMT2 (Homo sapiens) (UniProt Q96KQ7) (assay: qHTS Assay for Inhibitors of Histone Lysine Methyltransferase G9a). Details: G9a H3K9 monomethylation, AlphaScreen, 2 h; activity, negative = inhibition: at 59 µM (top of the series) unless noted.
In short: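 AlphaScreen detection with an anti-monomethyl H3K9 antibody quantified product after a 2 h room-temperature reaction containing 500 nM biotinylated H3K9 peptide, 20 µM SAM and 20 nM enzyme, which had been preincubated 15 min with compound.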
% is set by controls: 0 for no effect and ±100 for the full control effect; potency is the fitted concentration of half-maximal effect; tags give direction and shape of the fitted curve.
Note: nearly all actives have a fitted effect of over 75% in size.

Sequence of UniProt Q96KQ7 (Q96KQ7 whole entry, looked up): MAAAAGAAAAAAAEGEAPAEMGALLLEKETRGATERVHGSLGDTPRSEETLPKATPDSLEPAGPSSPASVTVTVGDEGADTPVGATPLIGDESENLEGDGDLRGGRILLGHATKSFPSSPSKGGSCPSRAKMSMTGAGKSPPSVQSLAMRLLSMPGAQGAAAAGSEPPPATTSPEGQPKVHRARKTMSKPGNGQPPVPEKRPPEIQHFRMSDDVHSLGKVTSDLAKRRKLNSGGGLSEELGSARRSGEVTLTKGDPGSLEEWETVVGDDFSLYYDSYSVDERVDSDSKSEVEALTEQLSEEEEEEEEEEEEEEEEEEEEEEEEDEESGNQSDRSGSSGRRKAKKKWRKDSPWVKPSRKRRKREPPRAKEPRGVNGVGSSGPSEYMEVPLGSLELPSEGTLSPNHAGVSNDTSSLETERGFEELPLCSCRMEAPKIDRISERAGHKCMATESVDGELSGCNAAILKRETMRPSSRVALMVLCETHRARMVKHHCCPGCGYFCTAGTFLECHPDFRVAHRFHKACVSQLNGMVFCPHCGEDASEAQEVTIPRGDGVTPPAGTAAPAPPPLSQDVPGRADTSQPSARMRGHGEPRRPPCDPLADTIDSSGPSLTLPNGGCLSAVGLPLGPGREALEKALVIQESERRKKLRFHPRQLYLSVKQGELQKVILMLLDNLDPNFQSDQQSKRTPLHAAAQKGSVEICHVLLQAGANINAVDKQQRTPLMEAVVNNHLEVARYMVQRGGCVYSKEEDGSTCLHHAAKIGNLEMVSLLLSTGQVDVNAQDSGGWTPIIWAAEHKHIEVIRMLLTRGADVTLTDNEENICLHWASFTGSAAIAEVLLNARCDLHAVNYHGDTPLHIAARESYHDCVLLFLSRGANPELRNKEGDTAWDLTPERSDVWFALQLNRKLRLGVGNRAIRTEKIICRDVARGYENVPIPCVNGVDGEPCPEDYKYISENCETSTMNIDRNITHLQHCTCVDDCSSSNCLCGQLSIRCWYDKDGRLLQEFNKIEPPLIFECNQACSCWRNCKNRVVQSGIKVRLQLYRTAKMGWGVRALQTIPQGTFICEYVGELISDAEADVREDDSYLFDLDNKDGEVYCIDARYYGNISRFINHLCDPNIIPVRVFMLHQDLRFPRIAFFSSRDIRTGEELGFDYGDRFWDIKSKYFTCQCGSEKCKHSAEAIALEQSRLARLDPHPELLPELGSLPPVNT

Row | SMILES | Potency | activity, negative = inhibition
1 | CCS(=O)(=O)c1ncc(N(Cc2ccccc2)Cc2ccco2)c(C(=O)Nc2cccc(Cl)c2C)n1 | inconclusive: 7.94 µM [inhibitor, partial curve, poor fit] | 
2 | COc1cccc(CNn2cn[nH]c2=S)c1OCc1ccccc1 | inconclusive: 7.08 µM [inhibitor, single point] | 
3 | NC[C@H]1O[C@@H](n2cnc3c(N)ncnc32)[C@H](O)[C@@H]1O |  | inactive: 2.32%
4 | COc1cccc(NC(=O)c2c([N+](=O)[O-])cnn2C)c1 | inconclusive: 79.4 µM [inhibitor, single point] | 
5 | Cc1ccn2cc(C34CC5CC(CC(C5)C3)C4)nc2c1 | inconclusive: 50.1 µM [inhibitor, partial curve] | 
6 | CCOc1ccc2[nH]c(=O)c(CN(Cc3ccco3)C(=O)c3ccc(Br)cc3)cc2c1 | inconclusive: 79.4 µM [inhibitor, partial curve, poor fit] | 
7 | CS(=O)(=O)Nc1ccc(C2=NN(C(=O)c3ccco3)C(c3ccc(F)cc3)C2)cc1 (configuration not stated) | inconclusive: 44.7 µM [inhibitor, partial curve] | 
8 | CCN(CC)S(=O)(=O)c1ccc(N2CCOCC2)c(NC(=O)CC2OC(=O)c3ccccc32)c1 (configuration not stated) |  | inactive: -23.1% [at 0.501 µM]
9 | CC(C)(C)c1ccc(C(=O)N/C(=C\c2ccco2)C(=O)Nc2ccccc2C(=O)O)cc1 | inconclusive: 35.5 µM [inhibitor, full curve, poor fit] | 
10 | O=C(COc1ccc(Cl)cc1)NCc1nnc(SCC(=O)Nc2ccc3c(c2)OCCO3)o1 |  | inactive: 18.5%
11 | COc1ccc(C)cc1S(=O)(=O)N1CCC(C)CC1 |  | inactive: 7.69%
12 | CCOC(=O)c1c(NC(=O)C(C)Sc2cccc[n+]2[O-])sc2c1CCN(Cc1ccccc1)C2 (configuration not stated) | active: 8.91 µM | 
13 | O=C(c1ccc2c(=O)n3c(nc2c1)CCCCC3)N1CCN(Cc2ccccc2)CC1 |  | inactive: 4.03%
14 | COc1ccc(NC(=O)c2c(C)oc3ccc(O)c(CN4CCC(C)CC4)c23)cc1Cl |  | inactive: -36.3%
15 | Cc1cccc(OCC(=O)Nc2ccccc2C(=O)OCc2cc(=O)n3ccsc3n2)c1 |  | inactive: 13.6%
16 | Cc1cccc(CNC(=O)Cn2c(-c3cccs3)cc3ccccc32)c1 |  | inactive: 8%
17 | Cc1cc(-c2n[nH]c(=S)n2/N=C/c2c[nH]c3ccccc23)n[nH]1 | active: 0.794 µM | 
18 | Cc1nn(CCC(=O)NNC(=S)Nc2ccc(F)cc2)c(C)c1[N+](=O)[O-] | inconclusive: 39.8 µM [inhibitor, single point] | 
19 | COc1ccc(-c2cc(C(=O)Nc3cc(S(=O)(=O)N4CCOCC4)ccc3N3CCOCC3)c3ccccc3n2)cc1 |  | inactive: -40.4% [at 102 µM]
20 | NC(=O)[C@@H]1CCCCNc2c(F)cc([N+](=O)[O-])cc2C(=O)N[C@@H](CC(=O)O)C(=O)N[C@@H](CCC(=O)O)C(=O)N1 | inconclusive: 70.8 µM [inhibitor, partial curve, poor fit] | 
21 | COCCn1c(C)cc(C(=O)COC(=O)c2ccccc2Br)c1C | inconclusive: 44.7 µM [inhibitor, partial curve, poor fit] | 
22 | Cc1ccc(C(=O)N/C(=C/c2ccco2)C(=O)NC2CCS(=O)(=O)C2)cc1 (configuration not stated) | inconclusive: 44.7 µM [inhibitor, partial curve] | 
23 | COc1cccc(C2=CC(c3cc(OC)ccc3OC)n3nnnc3N2)c1 (configuration not stated) | inconclusive: 1.26 µM [inhibitor, partial curve, poor fit] | 

Row | SMILES | Potency | activity, negative = inhibition
24 | CC(=O)n1nc(-c2cccnc2)nc1N | inconclusive: 50.1 µM [inhibitor, partial curve, poor fit] | 
25 | O=C(Cn1ccnc1[N+](=O)[O-])NCCO |  | inactive: -29.6% [at 21.5 µM]
26 | CCc1ccc2c(c1)c1nc(C)sc1n2CC(=O)OC | inconclusive: 22.4 µM [inhibitor, single point] | 
27 | OCCN1CCN(c2ncnc3sc(-c4ccccc4)cc23)CC1 |  | inactive: -31.9% [at 102 µM]
28 | COc1ccc2c(c1)c1nnc(SCC(=O)NC3CC3)nc1n2C | inconclusive: 79.4 µM [inhibitor, partial curve, poor fit] | 
29 | Cc1ccc(S(=O)(=O)NC(C)C(=O)Nc2cccc([N+](=O)[O-])c2)cc1 (configuration not stated) | inconclusive: 44.7 µM [inhibitor, partial curve] | 
30 | CCc1ccc(-n2nnc(-c3nc(-c4cccs4)no3)c2N)cc1 |  | inactive: 4.04%
31 | CC(C)n1c(=O)[nH][nH]c1=S | active: 0.891 µM | 
32 | COC(=O)c1cc2sc(Cl)cc2n1Cc1nc(-c2cccc(C)c2)oc1C | inconclusive: 28.2 µM [inhibitor, partial curve] | 
33 | CCOc1cc(C(=S)N2CCOCC2)ccc1O | active: 4.47 µM | 
34 | O=C(c1cc(-c2ccccc2)nc2ccccc12)N1N=C(C(F)F)CC1(O)C(F)F (configuration not stated) | inconclusive: 89.1 µM [inhibitor, partial curve, poor fit] | 
35 | CC(C)c1ccc(CN2CCC(C(=O)NCc3cccnc3)CC2)cc1 | active: 31.6 µM | 
36 | N#CCC(=O)NN=C1CCCCCCCCCCC1 | inconclusive: 6.31 µM [inhibitor, single point] | 
37 | N#Cc1ccccc1S(=O)(=O)N1CCN(CC(O)COc2ccccc2F)CC1 (configuration not stated) | active: 2.24 µM | 
38 | CCOc1ccc(N2C(=O)CC(NC3CCN(C(=O)c4cccs4)CC3)C2=O)cc1 (configuration not stated) | inconclusive: 28.2 µM [inhibitor, partial curve, poor fit] | 
39 | Cc1cc(C)n(CC(=O)NC2CCCN(Cc3ccc(Cl)cc3)C2)n1 (configuration not stated) |  | inactive: -6.64% [at 0.501 µM]
40 | O=C(CSc1nncs1)Nc1ccc(N2CCCCC2)cc1 | inconclusive: 20 µM [inhibitor, single point] | 
41 | COc1ccc(C2C(C(C)=O)=C(O)C(=O)N2c2ccc(F)cc2)cc1 (configuration not stated) | inconclusive: 89.1 µM [inhibitor, single point] | 
42 | COc1ccc(OC)c(NC(=O)c2ccc(CN3CCc4ccccc4C3)cc2)c1 | inconclusive: 89.1 µM [inhibitor, single point] | 
43 | Cc1ccc(CNC(=O)C23CN(Cc4ccccc4)CC2C(c2ccc([N+](=O)[O-])cc2)=NO3)o1 (configuration not stated) | inconclusive: 39.8 µM [inhibitor, single point] | 
44 | CCOC(=O)c1sc(N)c(C(=O)Nc2ccccc2)c1C | active: 10 µM | 
45 | Cc1ccc(CSc2nc3cccnc3n2Cc2ccc(C(=O)NCc3ccco3)cc2)cc1 | inconclusive: 22.4 µM [inhibitor, partial curve, poor fit] | 
46 | CC(C)C(NC(=O)CCNC(=O)c1ccc(C(C)(C)C)cc1)c1nc2ccccc2[nH]1 (configuration not stated) |  | inactive: 9.53% [at 12.7 µM]

Row | SMILES | Potency | activity, negative = inhibition
47 | COc1cc(NC(=O)c2ccc(NS(=O)(=O)c3c(C)noc3C)cc2)cc(OC)c1 | inconclusive: 89.1 µM [inhibitor, single point] | 
48 | CCOC(=O)C1=C(C)NC2=C(C1c1ccc([N+](=O)[O-])cc1)S(=O)(=O)c1ccccc12 (configuration not stated) | inconclusive: 63.1 µM [inhibitor, partial curve, poor fit] | 
49 | COc1ccccc1N1CCN(CCCOc2ccc(F)cc2)CC1 | active: 8.91 µM | 
50 | O=C(Cn1cnc2c(nnn2Cc2ccc(F)cc2)c1=O)Nc1ccc2c(c1)OCCO2 |  | inactive: 16.4%
51 | CCOC(=O)C(=O)Nc1ccc(S(=O)(=O)Nc2nccs2)cc1 | inconclusive: 89.1 µM [inhibitor, single point] | 
52 | Cc1cccc(-c2nc(CN3CCCC(C(=O)N4CCN(c5cc(Cl)ccc5C)CC4)C3)c(C)o2)c1 (configuration not stated) | active: 14.1 µM | 
53 | CCOc1ccc(CN2CCN(C(=O)c3ccccc3)CC2)cc1 | inconclusive: 3.55 µM [inhibitor, partial curve, poor fit] | 
54 | CCN(CC)c1ccc(NC2CC(=O)N(CCc3ccc(OC)cc3)C2=O)cc1 (configuration not stated) | inconclusive: 3.55 µM [inhibitor, single point] | 
55 | Cc1ccc(N2CC(C(=O)Nc3nnc(SCC(=O)NCC4CCCO4)s3)CC2=O)cc1 (configuration not stated) | inconclusive: 50.1 µM [inhibitor, single point] | 
56 | CCn1ncc([N+](=O)[O-])c1C(=O)Nc1nc2cccc(C)c2s1 | inconclusive: 25.1 µM [inhibitor, partial curve] | 
57 | CCCN1C2CCCC1CC(NC(=O)c1ccccc1Br)C2 (configuration not stated) | inconclusive: 0.708 µM [inhibitor, partial curve, poor fit] | 
58 | CCC(C)Nc1nc(N)c([N+](=O)[O-])c(Nc2cc(OC)ccc2OC)n1 (configuration not stated) | inconclusive: 50.1 µM [inhibitor, partial curve, poor fit] | 
59 | Cc1cc(N2CCN(C)CC2)nc2ccc(NC(=S)NCc3cccs3)cc12 | active: 39.8 µM | 
60 | O=C(c1ccc2c(c1)N(Cc1ccccc1)C(=O)c1ccccc1S2)N1CCCC1 | inconclusive: 89.1 µM [inhibitor, single point] | 
61 | CN1c2ccccc2C2(C)CCCC3=Cc4cc([N+](=O)[O-])cc([N+](=O)[O-])c4OC312 (configuration not stated) | inconclusive: 28.2 µM [inhibitor, partial curve, poor fit] | 
62 | CCOc1cc(NS(=O)(=O)CC)c(OCC)cc1NC(=O)c1ccco1 | inconclusive: 89.1 µM [inhibitor, single point] | 
63 | Cc1ccc(-c2nc3c(c(SCc4ccc(Br)cc4)n2)Cc2c(CO)cnc(C)c2O3)cc1 |  | inactive: -32.7%
64 | COC(=O)C1=C(C(=O)OC)C2(OC1c1ccccc1C)C(=O)c1ccccc1C2=O (configuration not stated) | active: 14.1 µM | 
65 | O=C(Nc1nnc(-c2ccncc2)o1)c1ccccc1 |  | inactive: -38.5% [at 102 µM]
66 | N=C1C(c2nc3ccccc3s2)=C(O)CN1C1CCCCC1 |  | inactive: -9.94% [at 12.7 µM]
67 | COC(=O)Cc1c(C)c2ccc(OCC(=O)NCc3ccc4c(c3)OCO4)cc2oc1=O | inconclusive: 0.631 µM [inhibitor, partial curve, poor fit] | 
